Results reported in the supplement of paper PMC11417369.
The list shows a part of the results.

tested on: PF3D7_0420300 AP2 domain 1 (GST-tagged); test: gcPBM binding intensity (ln(normalized median fluorescence intensity)); higher = stronger DNA binding
How it was run: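 Binding intensity is the highest Masliner-normalised natural-log median intensity over replicate spots in either probe orientation. To obtain it, GST-tagged P. falciparum DNA-binding domains made in E. coli were incubated for 1 h on an Agilent 4 × 180k array of primer-extended double-stranded 36-bp intergenic genomic probes plus negative controls. Detection used Alexa488 anti-GST antibody with scanning at 488 nm.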

Sequence	gcPBM binding intensity (ln)
TATTTATTGTGATACTTTTATTGTTTAATGATTAAA [CACACA_negctrl_site495]	9.18
AAGATTAAAAATTGCACACAAAAATATATTTTCTAT [CACACA_site1305]	9.31
AAATTATATCATTTATTTTTTTATATTTTTTATATT [CACACA_negctrl_site685]	9.12
AATTTCCTTTTTTAAAGTACACAAAAGTTCACTTTG [XGTACX_site4460]	8.9
TATAATTTATTAAGGGGTACATATATTTCATGATAA [XGTACX_site5141]	9.17
CAAATATAAATATATACATGCATCTATCTATATAAA [TGCATGCA_site369]	9.19
AATCAAAAATCAAACGCATGTAGTATAATAGATAAG [TGCATGCA_site753]	9.5
AAATTGTAGCACCAAGCATGCTAAAAGGACATATGA [TGCATGCA_site717]	9.34
TTGTTAAAAGTATCCATTCTTTATTACTTTTGTTTA [XGTACX_negctrl_site532]	9.22
TCGTAAACATATTGAAAAATATAAAAAGGGGTAATA [CACACA_negctrl_site619]	9.29
ATTGGGTACAAATACACACACATATATATATTAATA [CACACA_site2376]	9.92
TGTACCTTATTAATATATTTAACTCGCCTTATATAC [XGTACX_negctrl_site289]	9.47
TTAAGATATGTATATCGTACATGACATTAAAAATTT [XGTACX_site3352]	8.94
AATGGTATAATCAATACACACATAATATATATATTG [CACACA_site1658]	9.47
AAATAAATACACATATGTACATATTTTATTTTATTT [XGTACX_site2357]	9.29
TAAAAAAAATACAAAAGTACACAAAATTATACGTTA [XGTACX_site4656]	9.42
GTAACATTTTAAATATATACATATAATGTATTTATA [GTGCAC_negctrl_site344]	9.09
ATATATATATTATGGGGTACAAACATCAAAAGATTT [XGTACX_site3944]	9.31
ATTAATTAAAAGGGAACACATAGAAATTATAAAACA [GTGCAC_negctrl_site420]	9.66

Sequence	gcPBM binding intensity (ln)
ATTAAACCGTGGGAGCACACACACACACACACACAT [TGCATGCA_negctrl_site72]	10.8
TGTTGTATCAATTTTTGTACATAACACATATGTATA [XGTACX_site3666]	9.25
TATAAAAGATTGGAATGTACATAAGAAAAAAATATA [XGTACX_site5028]	9.41
TGTGTAGGGGATATTCTACTTTAAAAATAAATATAT [CACACA_negctrl_site207]	9.16
TTCAAGATTTATTATACACACATATTAATATTTATA [CACACA_site6413]	9.34
GGCCCAACTTCTTCTGACGAAAACGTAAATTGTGTG [XGTACX_negctrl_site533]	9.22
AATCATATTAGTATGGTGCAACATATATAAATATAT	9.15
TTATTTTCCCTTTGTGCATGCAGTTTACTTTTTGTG [TGCATGCA_site993]	9.7
ACACATATATTAAATGTGCACTGAAATATGCATATA [GTGCAC_site9936]	9.27
ACTTGTAAGAGACACACACACACACGGATATAAATA [CACACA_site6517]	10.1
CAAAATAAAAATAACACACACATTTATTTATATACA [CACACA_site6679]	9.77
ATATATGTATATTTATGTACGTATTCCTGTATAGTC [XGTACX_site5763]	9.43
GGAAAAAAAAATAAATGTACGAATTAACATATCAAA [XGTACX_site5653]	9.23
ACACAAGCACACAAATGTACATATATATATATATAT [XGTACX_site5146]	9.37
TTATTCATTTTTATTTGTACATAATTATATGAAATT [XGTACX_site6389]	9.19
TTTTATATTTTATGCACACTTATAAGAAATATGTAC [CACACA_site3040]	9.24
TATTTATTAAAACACACACACACACCCACAAAATAA [CACACA_site241]	10.1
TTATGTATTCATTTTTTTTAAGCACCCCAAAATGAT [CACACA_negctrl_site1344]	9.01
ATAATATATATATAAACACACAAAAAAAATTATATA [CACACA_site1534]	9.74

Sequence	gcPBM binding intensity (ln)
ATTTTTTTTTATGATACACACTTGGATAATTAAAAC [CACACA_site4473]	9.31
ATTCTATTATAATACACACCCAAATATTAAAAAGAT [CACACA_site2960]	9.73
CCACATGATATGATTACACACATATATATATTTACA [CACACA_site164]	9.66
TATTATATATATATATGTACATATATATGCTAAAAA [XGTACX_site5297]	9.15
GATGTTGCAAAATTCTGTACATATAAATGTATACAT [XGTACX_site5009]	9.28
CAAAATGTTTCTCATTGTACACAAAATAAATGTCCT [XGTACX_site6798]	9.04
TAATGAATTTAAATTTTAAAATTAATAAAAAAAATA [TGCATGCA_negctrl_site15]	8.89
ATACATATGTATATTTGTACATATTAGACAATCTTA [XGTACX_site6706]	9.04
ACATTTACAAGGAAAGTGCATATAAGAAAAATAAAA [GTGCAC_site9587]	9.24
ATTAGTAAATTTATATGTACACATTGTTATTTTATA [XGTACX_site1177]	9.38
TATTAATATGGTAATACACACTAATATACTTTTGTT [CACACA_site6860]	9.46
ATATATATATATATATGTACGTATTCATAAACAACA [XGTACX_site4282]	9.32
TTTAATGTTACTCCTTGTACACAAAATAGTGTTATA [XGTACX_site8416]	9.2
CTGTAAAAAATATAAACACACATAGAGATATATAAA [CACACA_site6292]	9.73
TAAGTATATTTTATATGTACTTATATATTTAATTTT [XGTACX_site4615]	8.91
CAAGCTTTTTCCTTTACACACATTAGTTATTTATAT [CACACA_site6781]	9.75
ATAGGTTCCCAAAATGCACACCAATGAAATTATTTA [CACACA_site8081]	9.21
ATATTATTTTAAAGTACACACATATATTAAGATATA [CACACA_site5306]	9.47
